Over roughly 110,000 compounds, “z-score” has its median near -0.1; the highest 2% begin near 2. The list shows a part of the results.
Each compound was assayed against Metabotropic glutamate receptor 8 (Rattus norvegicus) (UniProt P70579) (assay: mGluR8 Gi/Go-coupled signaling modulation – cell-based, rat, thallium flux, HTS, primary screen (AID 488969)). Settings: HEK293 rat mGluR8, GIRK (G protein-gated inwardly rectifying potassium channel) thallium flux, FluoZin2; at 10 µM; stronger effect = higher value; submaximal glutamate (EC20) added with thallium.
Sequence of UniProt P70579 (P70579 whole entry, looked up): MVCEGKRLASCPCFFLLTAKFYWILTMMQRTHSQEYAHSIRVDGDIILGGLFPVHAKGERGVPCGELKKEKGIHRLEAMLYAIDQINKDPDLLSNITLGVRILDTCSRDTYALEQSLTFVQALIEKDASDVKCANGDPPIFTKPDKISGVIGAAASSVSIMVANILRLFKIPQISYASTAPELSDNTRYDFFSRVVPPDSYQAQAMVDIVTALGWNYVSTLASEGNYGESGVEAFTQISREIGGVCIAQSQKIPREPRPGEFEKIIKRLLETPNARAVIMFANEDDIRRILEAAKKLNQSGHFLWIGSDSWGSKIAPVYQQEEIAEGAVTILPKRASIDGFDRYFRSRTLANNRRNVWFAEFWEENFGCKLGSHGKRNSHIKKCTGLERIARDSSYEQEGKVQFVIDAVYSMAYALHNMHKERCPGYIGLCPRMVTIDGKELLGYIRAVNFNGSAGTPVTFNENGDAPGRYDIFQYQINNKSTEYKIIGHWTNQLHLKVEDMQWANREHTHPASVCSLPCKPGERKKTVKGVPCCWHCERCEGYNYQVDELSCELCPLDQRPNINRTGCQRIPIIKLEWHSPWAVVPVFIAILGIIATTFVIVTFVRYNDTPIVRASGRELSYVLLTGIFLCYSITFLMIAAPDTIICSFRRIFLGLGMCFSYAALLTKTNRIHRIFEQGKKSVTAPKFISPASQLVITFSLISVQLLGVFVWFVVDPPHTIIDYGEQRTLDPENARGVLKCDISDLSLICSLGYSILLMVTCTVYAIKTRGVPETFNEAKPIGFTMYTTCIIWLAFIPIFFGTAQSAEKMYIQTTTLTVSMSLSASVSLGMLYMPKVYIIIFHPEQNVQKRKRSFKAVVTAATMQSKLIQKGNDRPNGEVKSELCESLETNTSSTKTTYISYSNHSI
CC(=O)C1=C(c2ccccc2)NC(=O)NC1c1ccccc1OCC(=O)Nc1ccccc1 (stereo unspecified) was tested, and the z-score was 0.852. For Cc1ccc(Cn2ccc(NC(=O)c3cc(-c4ccccc4)on3)n2)cc1, the z-score was 1.32. N#Cc1c(SCc2ccc(Cl)cc2)sc(C(=O)c2ccccc2)c1N was tested, and the z-score was 0.132. Compound O=C(NCNC(=O)c1ccccc1)c1ccccc1 has a z-score of -0.373. Cc1cc(C(=O)CSc2nn3c(=O)c(C(C)(C)C)nnc3s2)c(C)n1-c1ccc(F)cc1 gave a z-score of -0.983. O=C(COc1ccccc1)Nc1ncccn1 gave a z-score of 0.0512. CCN(CC)c1ccc2oc(=O)c(C)nc2c1 was tested, and the z-score was -0.103. Work on CCC1S/C(=N/C(=O)NC2CCCCC2)NC1=O (stereo unspecified) yielded a z-score of 0.106. Compound O=C(OCCOCCN=C1NS(=O)(=O)c2ccccc21)c1ccncc1 has a z-score of 1.61. Compound Cc1ccc(NC(=O)CSc2nnc(CN3CCOCC3)n2-c2ccccc2)cc1 has a z-score of 0.149. Compound Cc1ccc(OCC(=O)N2CCCCCC2)c(C)c1 has a z-score of -0.123. COCCNC(=O)c1ccccc1NS(=O)(=O)c1ccc(Br)s1 showed a z-score of 0.342. CC1CCCC(C)N1C(=O)Cn1c(=O)sc2ccccc21 (stereo unspecified) showed a z-score of -0.56. For CCCC1C(=O)N(c2ccccc2)C1c1ccccc1 (stereo unspecified), the z-score was -0.305. In the case of O=C(COc1ccccc1CNCc1ccccc1)Nc1ccccc1, the z-score is reported as 1.89. O=C(NNC(=O)c1ccc2c(c1)OCO2)NC12CC3CC(CC(C3)C1)C2 was tested, and the z-score was -0.287. Compound CCOC(=O)c1c(Nc2ccccc2N)cc(C)nc1C has a z-score of -0.345. Cc1ccc(S(=O)(=O)N(Cc2cc3cccc(C)c3[nH]c2=O)c2ccccc2)cc1 gave a z-score of -0.159. Nc1nc2ccc(Oc3ccccc3)cc2s1 gave a z-score of -0.274. Cc1ccnc(NC(=O)C2CCC(CNc3c(N4CCCC4)c(=O)c3=O)CC2)c1 (stereo unspecified) showed a z-score of 0.568. In the case of Cc1cnn(C(=S)NCc2ccco2)c1, the z-score is reported as -0.171. O=C1Nc2cc(C(=O)N3CCN(Cc4ccccc4)CC3)ccc2SC1N1CCOCC1 (stereo unspecified) was tested, and the z-score was 0.0584. For NS(=O)(=O)c1ccc(CCNC(=O)CN2CCN(c3ccccc3O)CC2)cc1, the z-score was -0.159. Cc1ccc(NC(=O)CCC(=O)N/N=C/C=C/c2ccccc2)cc1 was tested, and the z-score was -0.0968. Work on COc1cccc(NC(=O)c2cccnc2)c1 yielded a z-score of 0.272. In the case of CCc1cc(=O)oc2c(CN3CCCC3)c(O)c(Cl)cc12, the z-score is reported as -0.478. For CCOc1ccc(C/C(N)=N/n2cnnc2)cc1, the z-score was 0.411. N#C/C(=C\c1cn(Cc2cccc(F)c2)c2ccccc12)C(=O)NCc1ccco1 showed a z-score of -0.44. Work on C/C(=N\OC(=O)c1cccc(C)c1)c1sc(-c2ccccc2)nc1C yielded a z-score of 0.0633. With Cc1nc2nc(-c3ccccc3)[nH]n2c(=O)c1Cc1ccccc1 the z-score was 0.023. Work on Cc1cc(Oc2ccc(C#N)cc2)nc(NCc2ccccc2)n1 yielded a z-score of 0.216. O=C(/C=C/Nc1ccc(Br)cc1F)c1ccccc1 showed a z-score of -0.219. For CCOC(=O)N(CC)OC(=O)Nc1ccc(Cl)cc1, the z-score was -0.314. For COC(=O)c1cc(NC(=O)CN(c2cccc(OC)c2)S(=O)(=O)c2ccccc2)ccc1Cl, the z-score was -0.407. Work on COc1ccc(NC(=S)NCC(O)c2ccccc2)c(OC)c1 (stereo unspecified) yielded a z-score of -0.107. In the case of Cc1cc2ncn(-c3ncnc4sc(C)c(C)c34)c2cc1C, the z-score is reported as 0.366. For COc1ccc(NC(=S)N2CCN(C/C=C/c3ccccc3)CC2)cc1OC, the z-score was -0.323. In the case of O=C1[C@@H]2[C@@H]3C[C@@H]([C@H]4ON=C(c5ccc(OCc6ccccc6)cc5)[C@@H]34)[C@@H]2C(=O)N1c1ccc2c(c1)OCO2, the z-score is reported as 0.15. O=C(NCCN1C(=O)S/C(=C\c2ccc(Cl)cc2)C1=O)c1ccc(F)c(S(=O)(=O)N2CCOCC2)c1 gave a z-score of -0.146. CCn1c(=O)c2c3c(sc2n2c(=S)[nH]nc12)CCC3 was tested, and the z-score was -0.309. With CCN(CC)c1nc(SCCOC(=O)Nc2ccccc2)nc(N(CC)CC)n1 the z-score was -0.38. Cc1ccc(S(=O)(=O)C2(C(=O)O)CCCC2)cc1C showed a z-score of 0.0761. Cc1[nH]n(-c2ccccc2)c(=O)c1C=Nc1cccc2cccnc12 was tested, and the z-score was 0.652. Compound CCN(CC)S(=O)(=O)c1ccc(OC)c(NC(=O)c2cc([N+](=O)[O-])ccc2Cl)c1 has a z-score of -0.242. Cc1ccc(CNS(=O)(=O)/C=C/c2ccc3c(c2)OCO3)cc1 showed a z-score of 0.0141. Compound CCSc1cc(C2C(C#N)=C(N)OC(C)=C2C(=O)OC)c(C)o1 (stereo unspecified) has a z-score of 1.85. CCOC(=O)c1ccc(N2C(=O)C3CC=CCC3C2=O)cc1 (stereo unspecified) gave a z-score of -0.136. Compound O=C(NCc1ccco1)c1cnc2n(c1=O)CCS2 has a z-score of -0.0345. COC(=O)c1cccc(S(=O)(=O)N2CCC(c3nc4ccccc4o3)CC2)c1 gave a z-score of 0.148. CCN(CC)c1cc(CS(=O)c2ccccc2)nc(-c2ccccc2)n1 (stereo unspecified) showed a z-score of -0.238. For CC(C)(C)C1(C)OC(C(N)=O)C(C(N)=O)O1 (stereo unspecified), the z-score was 0.464. Work on O=C1COc2ccc(C(=O)NCc3ccco3)cc2N1 yielded a z-score of 0.913. For Cc1ccc(OCCNC(=O)c2cccc(Oc3ccc(C(F)(F)F)cc3[N+](=O)[O-])c2)cc1, the z-score was -0.0955. For CN(C(=O)CSc1nc2ccccc2n1CCc1ccccc1)C1CCS(=O)(=O)C1 (stereo unspecified), the z-score was 0.483. Cc1cnc(C(=O)OCC(=O)Nc2ccc(C)c(S(=O)(=O)N3CCCCC3)c2)cn1 gave a z-score of -1. In the case of CC(C)CC(c1nnnn1CCc1ccccc1)N1CCN(C(=O)c2ccco2)CC1 (stereo unspecified), the z-score is reported as 0.0414. O=c1[nH]c2cc3c(cc2cc1CN(Cc1nnnn1C1CCCC1)C1CCCC1)OCCO3 gave a z-score of -0.184. CCOC(=O)Cc1csc(NC(=O)CC(C)(C)C)n1 showed a z-score of -0.283. CC(C)(C)c1ccc(/C=C2\Oc3cc(OC(=O)N4CCOCC4)ccc3C2=O)cc1 showed a z-score of -0.308. In the case of Cc1cccc(Nc2n[nH]c(C)c2[N+](=O)[O-])c1, the z-score is reported as 0.073. Cc1[nH]nc(SCC(=O)N2CCC(C)CC2)c1[N+](=O)[O-] showed a z-score of -0.0871. In the case of Cc1ccc2nsnc2c1S(=O)(=O)NCCc1c(C)[nH]c2ccc(F)cc12, the z-score is reported as -0.0892. COc1ccc(CCNC(=O)CSCc2ccc([N+](=O)[O-])cc2)cc1 showed a z-score of -0.058. With CC(=O)Cc1nsc(NC(=O)c2cc(-c3cccc(C(F)(F)F)c3)oc2C)n1 the z-score was -0.566. In the case of CCc1cc2c(NCC3CCCO3)nc(C)nc2s1 (stereo unspecified), the z-score is reported as 0.755. O=C(C1CCCO1)N1CCN(Cc2c(O)ccc3ccccc23)CC1 (stereo unspecified) showed a z-score of -0.317. Work on CSCCC(NC(=O)c1cc(CC(C)C)oc1C)C(=O)O (stereo unspecified) yielded a z-score of 0.21. COC(=O)c1sccc1NC(=O)c1ccc(Br)o1 gave a z-score of -0.0512. Compound NC(=O)c1ccccc1N/C=C/C(=O)c1ccc(Cl)cc1Cl has a z-score of -0.406. CC(=O)N1CCN(c2ccc(NCc3ccc(C)s3)cc2)CC1 showed a z-score of 0.169. Work on Cc1cc(N(CCO)CCO)nc(-n2nc(C)cc2C)n1 yielded a z-score of 0.0533. With COc1ccc(CCNC(=O)COC(=O)c2ccc[nH]c2=O)cc1 the z-score was 0.0876. COc1ccc2c(c1)[nH]c(=O)c1sc3ccccc3c12 gave a z-score of -0.212. In the case of Cc1cc(C)cc(OCc2ccc(C(=O)N3N=C(C(F)F)CC3(O)C(F)F)o2)c1 (stereo unspecified), the z-score is reported as -0.136. O=C(NCc1ccccc1)Oc1cccc(Cl)c1 was tested, and the z-score was -0.077. Cc1nc2ccc(NC(=O)N3CCCCC3)cc2nc1C gave a z-score of -0.733. CC(C(=O)c1ccccc1)n1cnc2ccccc2c1=O (stereo unspecified) was tested, and the z-score was 0.257. Compound Cc1nn(C)c(C)c1NC(=O)CN1CCC(O)(c2ccc3c(c2)OCO3)CC1 has a z-score of 0.225. Cc1cc(C(=O)NCCCN2CCN(c3cc(Cl)ccc3C)CC2)n(-c2ccccc2)n1 showed a z-score of -0.0252. CC1(C)CC(C(=O)Nc2nccs2)CCO1 (stereo unspecified) showed a z-score of 0.392. Work on Cc1cc(C)c(S(=O)(=O)n2cnc3ccccc32)c(C)c1 yielded a z-score of 1.96. CC(=O)Nc1cc(C(=O)N2CCc3ccccc3C2)ccc1Sc1ccc(Cl)cc1 showed a z-score of -0.633. Cn1c(=O)[nH]c(=O)c2c1nc(CN1CCOCC1)n2CCc1ccccc1 showed a z-score of -0.224. With CC(c1ccco1)N(C(=O)C12CC3CC(CC(C3)C1)C2)c1ccccn1 (stereo unspecified) the z-score was -0.0361. Compound NC(=O)C(Cc1ccccc1)NS(=O)(=O)c1ccc(N2CCCC2=O)cc1 (stereo unspecified) has a z-score of 0.443. For Cc1cc(C)n2c(SCc3c(C)noc3C)nnc2n1, the z-score was -0.0364. COc1ccc2[nH]c(=O)c(CN(Cc3cccs3)C(=S)Nc3cccc(C)c3)cc2c1 showed a z-score of 0.267. CCN1C(=O)C(O)(CC(=O)c2cc(C)ccc2C)c2ccccc21 (stereo unspecified) was tested, and the z-score was 0.918. Work on O=C(NNC(=O)c1ccccc1Br)c1cccc(Cl)c1 yielded a z-score of 1.39. COc1ccc(NC(=S)NCCc2ccc(Cl)cc2)c(OC)c1 gave a z-score of 0.319. COC(=O)C(C)(C)ONC(=O)Nc1ccccc1Br gave a z-score of 0.15. COc1ccc2c(C)cc(SCC(=O)Nc3ncc(Cl)cc3Cl)nc2c1 showed a z-score of -0.0654. Compound COc1ccc(C(=O)NCc2cccnc2)cc1Br has a z-score of -0.493. Compound C=CCNc1nc2c(c(=O)[nH]c(=O)n2C)n1Cc1cccc(C)c1 has a z-score of -0.137. With COC(=O)NNC(=O)COc1ccc2ccccc2c1Br the z-score was -0.336. COc1cc(-c2c(C#N)c(N)nc3c2CCCC3)cc(OC)c1OC showed a z-score of -2.82. Work on CCOc1ccc(-c2nnc(SCc3nc4ccccc4[nH]3)n2N)cc1 yielded a z-score of 0.0568. For CC(=O)Cc1nsc(NC(=O)c2ccccc2)n1, the z-score was -0.744. Work on COc1ccc(CC(=O)N2CC(C)CC(C)C2)cc1OC (stereo unspecified) yielded a z-score of 0.418. COc1ccc(C(=O)Cc2ccc(OC)c(OC)c2)c(OC)c1 was tested, and the z-score was 0.183. Compound CCn1cc(C(=O)O)c(=O)c2cc(F)c(N/N=C/c3ccccc3)cc21 has a z-score of -0.559. Work on COc1ccc(C(=O)CSc2nnc(NC(=O)C3CC(=O)N(c4ccccc4C)C3)s2)cc1 (stereo unspecified) yielded a z-score of -0.0938. With CCOC(=O)Cc1csc(NC(NC(=O)OCC)(C(=O)OCC)C(F)(F)F)n1 (stereo unspecified) the z-score was 1.79. Work on CC(C)N(C(=O)COC(=O)[C@@H]1CC(O)CN1S(=O)(=O)c1ccccc1[N+](=O)[O-])C(C)C (stereo partly specified) yielded a z-score of -0.0393. O=C(c1ccccn1)N(Cc1cc2ccccc2[nH]c1=O)C1CCCCC1 was tested, and the z-score was -0.167. In the case of O=C(CCC(=O)c1ccc(F)cc1)Nc1cccc(C(F)(F)F)c1, the z-score is reported as -0.344. With O=C(/C=C/c1ccco1)Nc1nc(-c2ccccc2)cs1 the z-score was -0.216. With Cc1cc2cc(CNC(=O)c3ccc(S(=O)(=O)N4CCCC4)cc3)ccc2n1C the z-score was -0.454. CCOC(CCNC(=O)c1cn(-c2cccc(C)n2)cn1)OCC was tested, and the z-score was -0.118. CSCCC(NC(N)=O)C(=O)N(C)CC(=O)Nc1cc(C)ccc1C (stereo unspecified) was tested, and the z-score was 0.00676. Cc1ccc(S(=O)(=O)Nc2ccccc2C(N)=O)cc1 was tested, and the z-score was -0.215.

Reference: PubChem BioAssay AID488969 (Vanderbilt High Throughput Screening Facility, 2010)
